Test results from ChEMBL document CHEMBL4888484, “Replenishing the malaria drug discovery pipeline: Screening and hit evaluation of the MMV Hit Generation Library 1 (HGL1) against asexual blood stage Plasmodium falciparum ,using a nano luciferase reporter read-out” (2022).
The whole screen tested about 150,000 compounds, of which about 540 (0.36%) showed an effect of 50% or more. Some of the results follow.

System: Plasmodium falciparum
Experiment: Primary screen in NF54 nanoGlo assay, in single point, at 2uM, 72h; a lower Z score goes with more inhibition
Assay type: functional, Erythrocyte
Conditions: timepoint 72 hour

Structure (SMILES)	% Inhibition	Z score
COc1ccc(-c2cc(C(=O)N3CC[C@H](c4nc(C)no4)C3)[nH]n2)cc1	-20%	2.36
COCCNS(=O)(=O)c1cc(C(=O)N2CCCC2)cs1	-6%	0.62
CCc1nc2cc(C(=O)NCC3CCN(CCO)CC3)cc(NC(=O)c3ccccc3OC)c2n1C	-3%	0.39
N#Cc1c2n(c(=O)n(Cc3noc(-c4ccco4)n3)c1=O)CCC2	-9%	1.3
O=C(NCc1cc(Cl)ccc1Cl)N1CCC(O)(CN2CCCC2)CC1	-12%	1.26
CN1C[C@@H](CN(C)C(=O)NCc2ccc3sccc3c2)CC1=O	-4%	0.63
Cc1nc([C@H](C)NC(=O)Cc2c(C)noc2C)n[nH]1	-12%	1.2
CCn1nc(C)c(-c2cc(C(=O)N3CC4(C3)C[C@@](O)(CC)CO4)no2)c1C	-12%	1.81
Cc1nn(-c2ccccc2)c2sc(-c3noc(C4CC4)n3)cc12	14%	-1.59
N#Cc1nccnc1NCCNc1ncc(Cl)cc1Cl	-10%	1.59
Cc1nn(C)c2cc(NC(=O)N3CCOCC3C3CCCO3)ccc12 (stereo unspecified)	-11%	1.24
CS(=O)(=O)c1ccc(-c2noc(C3CC4CCC3C4)n2)cc1 (stereo unspecified)	0%	0.06
N#Cc1c(N)c(C(=O)c2ccc(F)cc2)n2c1CCCC2	-4%	0.76
CCOC(=O)C1CCN(C(=O)Nc2ccc(NC(=O)N3CCC(C(=O)OCC)CC3)cc2)CC1	44%	-5.67
Cc1noc2ncnc(NC[C@H](C)Oc3cccc(F)c3)c12	0%	0.07
CCCc1nc(N2CCN(C(=O)c3ccccc3OC)CC2)c2c(-c3cccc(C(F)(F)F)c3)noc2n1	-1%	0.19
COc1ccc(CN(C(=O)C2CCC2)C2CCCC2)cc1OC(C)C	-5%	1.06
CCCCNC(=O)C(=O)NCc1ccc(OC)cc1	-6%	0.75
c1nc([C@H]2CCCNC2)n(-c2ccc3c(c2)CCC3)n1	-11%	1.36
Cc1ccc(NC2CCN(C)CC2)cc1NC(=O)CCCOc1ccccc1F	-8%	0.99
Cc1cccc([C@H]2CCCN(C(=O)NCc3cn4cccc(C)c4n3)C2)c1	10%	-1.32
O=C(Nc1ccc2c(c1)OCCCO2)c1ccoc1	-10%	1.13
Cc1ncsc1C(=O)N1CCC(c2ncon2)CC1	-6%	0.96
